# The whole screen tested about 45,000 compounds, of which about 200 (0.44%) were called active. Inconclusive results (about 7%) are left out. Calls follow the shape of the dose curve; as a rule, active = well fitted activation curve with a large enough effect; inconclusive = small, poorly fitted or top-dose-only effect; inactive = no such curve, though single readings can be large or run the other way. The list shows a part of the results.
# Assay: qHTS of TDP-43 Inhibitors: NCGC Sytravon Library Screen; also: 0% is about no effect; nearly all actives have a fitted effect of over 55% in size
# Conditions: yeast TDP-43 toxicity rescue, BacTiter-Glo growth, 24 h; series mostly up to 46.1 µM; growth rescue (activation): at the top concentration
# How it was run: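 TDP-43-expressing yeast, pregrown in raffinose, seeded at OD600 0.02 in galactose medium with compound for 24 hr at 30 deg C. Growth read by BacTiter-Glo luminescence, so rescue of toxicity appears as activation.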
row,SMILES,growth rescue (activation)
1,CC(C)COc1ccc(C(=O)Nc2cccc(-c3nc4ccccc4[nH]3)c2)cc1,inactive: 29.8%
2,CC1=CCC2C(=O)N(c3ccc(S(N)(=O)=O)cc3)C(=O)C2C1 (centres undefined),inactive: -14.2%
3,CCCC(=O)N1CCC1(C)C(=O)Nc1ncc(C(=O)OC)s1 (centres undefined),inactive: -5.77%
4,Cc1ccc(C(=O)N/C(=C\c2ccc(F)cc2)C(=O)NCCN2CCOCC2)cc1,inactive: -7.16%
5,O=C(/C=C/c1ccc(F)cc1)N1CC[C@@]2(O)CCCC[C@H]2C1,inactive: 0.994%
6,COc1ccc(S(=O)(=O)NC(C)C(=O)Nc2ccc3c(c2)OCO3)cc1OC (centres undefined),inactive: 2.47%
7,Oc1ccc(/C=N/NC(=S)Nc2cccnc2)c(O)c1,inactive: 11.5%
8,O=C(CN1C(=O)/C(=C2/SC(=S)N(CCS(=O)(=O)O)C2=O)c2ccccc21)Nc1cccc(Br)c1,inactive: 4.31%
9,O=C(NCC(=O)N(c1ccccc1F)C(C(=O)NC1CCCC1)c1cccnc1)c1ccco1 (centres undefined),inactive: -1.39%
10,O=C(NC1CCCCC1)C(c1ccccc1)N(Cc1cccnc1)C(=O)c1csnn1 (centres undefined),inactive: 9.91%
11,CCOP(=O)(OCC)/C(=N/OC(=O)c1ccc(Cl)cc1Cl)C(N)=O,inactive: -3.85%
12,CCc1nnc(NS(=O)(=O)c2ccccc2)s1,inactive: 20.6%
13,CCOCCOC(=O)c1[nH]c2c(c1C)C(=O)CC(c1cc(OC)c(OC)c(OC)c1)C2 (centres undefined),inactive: 16.6%
14,COc1ccc(CCNC(=O)Nc2ccc([N+](=O)[O-])cc2)cc1OC,inactive: 4.87%
15,CCN(CCN1CCCC1)C(=O)c1cc(COc2ccccc2SC)on1,inactive: -4.49%
16,Cc1ccccc1CNC(=O)C(=O)Nc1nccs1,inactive: 11.8%
17,Cc1ccc(S(=O)(=O)NC(=O)Nc2ccc(C)cn2)cc1,inactive: -0.0837%
18,COc1cccc(NC(=O)CN2C(=O)NC(Cc3c[nH]c4ccccc34)C2=O)c1 (centres undefined),inactive: -16.9%
19,CN(C(=O)CSc1nc2cc([N+](=O)[O-])ccc2n1-c1ccc(F)cc1)C1CCS(=O)(=O)C1 (centres undefined),inactive: -3.33%
20,COc1ccc(OC)c(C2C/C(=N/O)C(C)C(c3cc(OC)ccc3OC)N2)c1 (centres undefined),inactive: -6.32%
21,Cc1c(C2=CCN(S(=O)(=O)c3ccc(Cl)cc3)CC2)c2ccccc2n1C,inactive: 16%
22,CC(C)Nc1nc(-c2ccccn2)nc(-c2ccccc2)c1C#N,inactive: 7.26%
23,Cc1ccc2nc(SCC(=O)c3c(N)n(C)c(=O)n(C)c3=O)[nH]c2c1,inactive: 0.652%
24,C/C(Cn1nnc2ccccc21)=N/OC(=O)c1c(F)cccc1F,inactive: -0.194%
25,CCC(=O)c1ccc(OC(=O)c2cnccn2)cc1,inactive: -17.7%
26,Cc1noc(C)c1C(=O)NCc1ccccc1Br,inactive: -0.772%
27,CN(CCC#N)C(=O)COC(=O)/C=C/c1ccc2c(c1)OCO2,inactive: 0.288%
28,COc1ccc(N(C(=O)Cn2nnc3ccccc32)C(C(=O)NCc2ccco2)c2ccncc2)cc1 (centres undefined),inactive: 12.3%
29,O=C(CNC(=O)c1cc(Cl)cc([N+](=O)[O-])c1)OCC(=O)N1CCCCC1,inactive: 24.2%

# — PubChem BioAssay AID1347073 (National Center for Advancing Translational Sciences (NCATS), 2019)
